# Reference: PubChem BioAssay AID743279 (National Center for Advancing Translational Sciences (NCATS), 2014)
# The whole screen tested about 360,000 compounds, of which about 17,000 (4.7%) were called active. The inconclusive results got no clear call from the source; some entries with a clear call stand among them for comparison. No stated cut-off is given here; in the data, active means activity change below about -50%; inconclusive means mostly about -30% to -49%; inactive means weaker than that.
# Assay: qHTS for Inhibitors of Inflammasome Signaling: IL-1-beta AlphaLISA Primary Screen
# Conditions: THP-1 LPS/ATP IL-1B secretion, 16 h; at 57.5 µM, hits give low values
# In short: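 Secreted IL-1B measured by AlphaLISA bead assay after 16 h compound exposure of THP-1 cells; compounds (final up to 57.5 uM) added 1 h before LPS (250 ng/mL) and ATP (1.25 mM) stimulation; lower signal means less secretion.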
# On the % scale 0 is the no-effect control and ±100 the full control effect.
row,SMILES,activity change
1,OCC1(CCOc2ccccc2)CCN(Cc2ccc3cccc(F)c3n2)CC1,inconclusive: -36%
2,Cc1cc(Nc2ccccc2C(=O)O)n(-c2ccc([N+](=O)[O-])cc2)n1,inactive: 53.2%
3,Cc1ccc(Nc2nc(CSc3nnc(-c4ccncc4)n3-c3ccccc3C)cs2)cc1,active: -74.1%
4,NC(=O)c1nsc(C(=O)N(Cc2ccco2)C(C(=O)NCc2ccc(F)cc2)c2ccc(O)cc2)c1N (stereo not drawn),inconclusive: -33%
5,O=C(N/N=C/c1ccccc1C(=O)O)c1ccccc1Br,inactive: 12%
6,COc1ccc(-c2nnc(-c3ccc(C)cc3)o2)cc1,inconclusive: -32%
7,NC(=O)c1cc2ccccc2o/c1=N\NC(=O)c1ccco1,inconclusive: -42.6%
8,Cn1cnc([N+](=O)[O-])c1Sc1nc(N)nc2c1ncn2Cc1ccccc1,active: -101%
9,CCOC(=O)Cn1c(C)[n+](CC(=O)c2ccccc2)c2ccccc21,inactive: 37.7%
10,Cc1cccc(NC(=O)COc2ccccc2C(=O)NC(C)c2ccccc2)c1 (stereo not drawn),inactive: 13.6%
11,CCCCCN(C(=O)CCC(=O)OCc1ccccc1C)c1c(N)n(CCCC)c(=O)[nH]c1=O,inconclusive: -43.7%
12,CCCCCCCCN1C(=O)[C@H](CC(=O)NCCCN2CCCC2=O)C[C@@]2(C(=O)OCC)CCCC=C12,inactive: -12.2%
13,C/C(=N/NC(=O)CN1CCN(S(=O)(=O)c2ccc(C)cc2)CC1)c1ccco1,inactive: 58.5%
14,CNC(=O)/C(C#N)=C/c1c(N(Cc2ccccc2)Cc2ccccc2)nc2ccccn2c1=O,inconclusive: -45.4%
15,CN1CCC2(CC1)N=C(c1ccc(F)cc1)C(=S)N2C(=O)c1ccc(C(C)(C)C)cc1,inconclusive: -39.1%
16,Cc1cccc(/C=C/c2nc3ccccc3c(=O)n2Cc2ccccc2)c1,active: -69.9%
17,COc1ccc(/C=C/C(=O)c2ccoc2)cc1,inconclusive: -35.5%
18,CCOC(=O)[C@H]1[C@H]2COc3ccc(Br)cc3[C@H]2N2C(=O)CN(Cc3ccc(Cl)cc3)C(=O)[C@@]12C,active: -52.4%
19,COc1ccccc1NS(=O)(=O)c1cc2c3c(c1)CCN3C(=O)CC2,inactive: 19.1%
20,CC1CCCCC12NC(=O)N(CC(=O)OCc1ccccc1Cl)C2=O (stereo not drawn),inconclusive: -33.8%
21,Cc1ccc(C(=O)Nc2ccc3ncccc3c2)cc1,inconclusive: -45%
22,CCOc1cc(CNCCc2ccc(S(N)(=O)=O)cc2)ccc1OCc1ccc(Cl)cc1,active: -109%
23,CCC(=O)C1CCCN(C(=O)c2ccc(OC)c(OC3CCN(C(C)=O)CC3)c2)C1 (stereo not drawn),inactive: 8.55%
24,COC(=O)c1ccc(-n2cnc3ccccc32)nc1,inconclusive: -39.7%
25,COc1cc(CNC(C)(C)CO)cc(Br)c1OCc1ccccc1,inconclusive: -41%
26,Cc1cc(Cl)c2oc(C(=O)N3CCN(c4ccncc4)CC3)c(C)c2c1,active: -88.2%
27,Cc1cccc(C)c1N(CC(O)Cn1c2ccccc2c2ccccc21)S(C)(=O)=O (stereo not drawn),inactive: -22.1%

row,SMILES,activity change
1,O=C(Nc1nc2c(ccc3ccccc32)s1)c1ccco1,inconclusive: -35.9%
2,COC(=O)CNC(=O)c1cc(-c2ccncc2)nc2ccc(C)cc12,inconclusive: -32.2%
3,CCc1cccc(OCC(=O)Nc2ccc(S(=O)(=O)N3CCCC3)cc2)c1,inconclusive: -45.9%
4,CO/N=C(/CS(=O)Cc1ccc(Cl)cc1)c1ccc(Cl)cc1 (stereo not drawn),inconclusive: -35.4%
5,CC(Oc1cccc(Br)c1)C(=O)Nc1cccc(S(=O)(=O)N2CCOCC2)c1 (stereo not drawn),inconclusive: -42.1%
6,Cn1ccc(NC(=O)Nc2ccc(Cl)cc2Cl)n1,inconclusive: -33.5%
7,COc1ccc(C(=O)Nc2ccc(C3=NNC(=O)CC3C)cc2NC(=O)c2ccc(OC)cc2)cc1 (stereo not drawn),inconclusive: -42.5%
8,CC1=C(C(=O)N(C(C)C)C(C)C)CC(CC(=O)NCc2cccc3ccccc23)C(=O)N1Cc1ccc(C(C)(C)C)cc1 (stereo not drawn),inconclusive: -33.8%
9,O=C(CN1c2cccc3cccc(c23)S1(=O)=O)N1CCN(c2ccc(F)cc2)CC1,inconclusive: -32%
10,CN(C)C(=O)c1cccc(-c2cccc3nccn23)c1,inactive: 53.8%
11,CCN(CC(=O)NCc1ccc(Cl)cc1)C(=O)COc1cccc(Cl)c1,inconclusive: -36.9%
12,O=C(NN=C1c2ccccc2-c2ccccc21)c1cccc(Br)c1,inactive: -10.7%
13,O=C(CCN1CCCCO1)N1CCCC(Nc2ccc(F)cc2)C1 (stereo not drawn),inactive: -5.87%
14,Cc1ccc(C(=O)N/C(=C/c2cccs2)C(=O)N2CCCCCC2)cc1,inconclusive: -32%
15,CN(C)S(=O)(=O)c1ccc(NC(=O)Cn2c(-c3ccccc3)noc2=O)cc1,inconclusive: -41.7%
16,COC(=O)C1=C(C)N(Cc2ccccc2)C(=NCCc2c[nH]c3ccccc23)N[C@H]1c1ccccc1,inconclusive: -48.2%
17,CC(C)c1c(O)nc(SCCC(=O)O)[nH]c1=O,inactive: 4.31%
18,N#CC(C#N)=C1C=CC=CN1/C(=C\c1ccco1)C(=O)c1ccc(Br)cc1,active: -106%
19,CC1CC(C)CN(C(=O)CSc2nc(Cc3cccs3)nc3ccccc23)C1 (stereo not drawn),active: -60.5%
20,CN1C(=O)[C@H]2[C@@H](c3ccccc3)N[C@]3(CCCN(Cc4ccc(F)cc4)C3=O)[C@H]2C1=O,inconclusive: -30.5%
21,COC(=O)[C@]12CCCCC=C1N(CCC1=CCCCC1)C(=O)[C@H](CC(=O)NCCCCc1ccccc1)C2,inconclusive: -46%
22,CN1CCN(c2nc3c(c(=O)[nH]c(=O)n3C)n2CCOc2ccccc2)CC1,inactive: -8.26%
23,CCOC(=O)[C@]12CCCC=C1N(CCC1=CCCCC1)C(=O)[C@H](CC(=O)NCC1CCCCC1)C2,inconclusive: -47.5%
24,COCCN(C(=O)COC(=O)/C=C/c1ccco1)c1c(N)n(Cc2ccccc2)c(=O)[nH]c1=O,inactive: 5.25%
25,COc1ccccc1CCn1cnc(Cc2ccccc2)c1C(C)C,active: -51.8%
26,CN1CCN(c2ncnc3c2ncn3[C@H]2CN(Cc3cccs3)C[C@@H](CO)O2)CC1,inactive: 23.7%
